Test results from the RNAGym collection of RNA variant scans (doi:10.7554/elife.90254).
Read counts are not given, so values of variants with three or more changes are uncertain.

B1: LINE1-mini (parent)
chain: GGCAGAGCUCAACACAGCGUGGCAAAGUGGCUGUGGCUAGACUGCC

Variants of: B1
Assay: self-cleavage, relative activity (ratio to wild type); higher = more cleavage; in vitro, sequencing; the parent is a self-cleaving ribozyme

With GGCACAGCUCAACACAGCGUGGCAAAGUGUCUGUAGCUAGACUGCC as the variant, how does the self-cleavage read?
The self-cleavage was 0.21.

For GGCACACCUCAACACAGAGGGGCUAAGUGGCUGUGGCUAGACUGCC, which self-cleavage is on record?
The self-cleavage was 0.01.

Which self-cleavage does the source give for GGCACAGCUCAACACAGCGUGGCAAAGUGGCUAAGGCUAGACUGCA here?
The self-cleavage was 0.11.

Which self-cleavage does the source give for GGCACAACUCAACAAAGCGUGGCAAAGUGGCUGUGGCUAGACUGCC here?
The self-cleavage was 0.15.

With GGCACAACUCAACACAGCGUGGCAAAGUUCCUGUCGCUAGACUGCC as the variant, how does the self-cleavage read?
Its self-cleavage is 0.28.

For GGCACAGCUCAACACAGCGUGGCAAAUUGGCUGUGGCCAGACUGCC, which self-cleavage is on record?
The self-cleavage was 0.05.

For GGCACAGCUCAACACAGCGUGGCAAAGUGGCUAUGGCUAUACUGCC, which self-cleavage is on record?
Its self-cleavage is 0.03.

With GGCACAGCUCAACACAGCGUGGCAAAGUAGUUUUAGCUAGAUUUCC as the variant, how does the self-cleavage read?
The self-cleavage was 0.01.

Which self-cleavage does the source give for GGCACAGCUCAACACAGCGUGGCAAAGUUGCUGUGGCUAGACUGAC here?
The self-cleavage was 0.04.

Which self-cleavage does the source give for GGCACAGCUCAACACAGCUUGGCAAAGUGGCUGUGGCAAGAAUACC here?
The self-cleavage was 0.01.

For GGCACAGCUCAACACACCGUGGCUACGUGGCUGUGGUUAGACUGCC, which self-cleavage is on record?
Its self-cleavage is 0.05.

With GGCACAGCUCAACACAGCGUCGCAAUAUGCCCGUGGCUAAACUGCC as the variant, how does the self-cleavage read?
Its self-cleavage is 0.02.

Which self-cleavage does the source give for GGCACAACUCAUCAAAGCGAGGCAAAGUGGCUGUGGCUUGACUGAC here?
The self-cleavage was 0.

Which self-cleavage does the source give for GGCACAACGCAACACUACGUGGUAAAGUGGAUGUGGCCAGACUGCC here?
Its self-cleavage is 0.04.

Which self-cleavage does the source give for GGCACAGCUCAACACAGCGUGGCAAAGUGGCUGUGUCUGGACUGCC here?
The self-cleavage was 0.02.

With GGCACAGCUCAACACAGCGUGGCAAAAUGGCUUUGGCUAGACUGCC as the variant, how does the self-cleavage read?
Its self-cleavage is 0.6.

With GGCACAUCUCAACAAAGCGUGGCAAAUUAGCCGUGGCUAGACUGCC as the variant, how does the self-cleavage read?
Its self-cleavage is 0.14.

Which self-cleavage does the source give for GGCACAGCUCAACACAACGUGGCAACGUGGCUGUGGCUAGACUGCC here?
The self-cleavage was 0.06.

With GGCACAUCUCAACACAGCGUGGCAAAGUGGCUGUGGCUAGACUGCA as the variant, how does the self-cleavage read?
The self-cleavage was 0.09.

Which self-cleavage does the source give for GGCACAGCUCAACACAGCGUGGCAAAGUGUCCGUGGCUAGACUGCC here?
The self-cleavage was 0.03.

For GGCACAGCUCAACACAACGUGCCAAAGUGGCUGUGGCUAGACUGCC, which self-cleavage is on record?
Its self-cleavage is 0.04.

For GGCACAGCUCAACACAGCUUGGCAAAGUGGCUGUGGCUAGACUGCU, which self-cleavage is on record?
Its self-cleavage is 0.02.

For GGCACAGCUCAACACAGCGUUGCAAAGUGGCUGUGGCUAGGCUGCC, which self-cleavage is on record?
Its self-cleavage is 0.04.

For GGCACAACUCAACACGGCGUGGCAAAGUGGCUGUGGCUAGACUGUC, which self-cleavage is on record?
Its self-cleavage is 0.24.

Which self-cleavage does the source give for GGCACAGCUCAACACAGCAUGGCAAAGUGGCUGUGGCUAGGCCGCC here?
Its self-cleavage is 0.02.

For GGCACAGCUCAACACAGCGUUGCAAAGUGGCUGCGGCUAGACUGCA, which self-cleavage is on record?
The self-cleavage was 0.02.

With GGCACAGCUCAACACAGCGUCGUAAAGUGGCUGCGGCUAGACUGCC as the variant, how does the self-cleavage read?
The self-cleavage was 0.03.

Which self-cleavage does the source give for GGCACAGCUCAACACAGCGUGGCAAAGUGGCUGUUGCUAGACCGCC here?
Its self-cleavage is 0.07.

Which self-cleavage does the source give for GGCACAGCUCAACACAGCGUGGCAAAGUGGCUCUGGCUAGACAGCC here?
The self-cleavage was 0.04.

With GGCACAGCUCAACACAGCGUGGCAAAGUGGCUUUAGCUAGACUGCC as the variant, how does the self-cleavage read?
Its self-cleavage is 0.08.

For GGCACAACUCAAUACAGCGUGGCAAAGUGGCUGUGGCUAGACUGCC, which self-cleavage is on record?
Its self-cleavage is 0.1.

For GGCACACCUCAACACAGCGUGGCAAAGUGGCUGUGGAUAGACUGCC, which self-cleavage is on record?
The self-cleavage was 0.32.

With GGCACAACUCAACACAGCGUGGCAAAGUCGCUGUUGCUAGACUGCC as the variant, how does the self-cleavage read?
Its self-cleavage is 0.08.

For GGCACAUCUCAACACAGCGUGGCUAAGUGGAUGUGGCUAGACUGCC, which self-cleavage is on record?
The self-cleavage was 0.01.

Which self-cleavage does the source give for GGCACAGCUCAACACAGCGUGACAAAGUGCCUGUGGCUAGACUGCC here?
Its self-cleavage is 0.04.

For GGCACAACUCAACACAGCGUUGCAAAGUGGCUGUGGCUAGAGUGCC, which self-cleavage is on record?
The self-cleavage was 0.12.

For GGCACAGCUCAACACAGCGUGGCAAAAUGGCUGUCGCUAUACUACC, which self-cleavage is on record?
The self-cleavage was 0.04.

With GGCACAGCUCAACACAGCGUGGCAAAGUGGCUGUCGAUAGACUGCC as the variant, how does the self-cleavage read?
The self-cleavage was 0.02.

For GGCACAGCUCAACACAACGUGGCACAGUGGCUGUGACUAGACUGCC, which self-cleavage is on record?
The self-cleavage was 0.

With GGCACAGCUCAACACACCGUGGCAAAUUGGCUGUGGCUAGACUGCC as the variant, how does the self-cleavage read?
The self-cleavage was 0.02.

Which self-cleavage does the source give for GGCACAGCUCAACACAGCCCGGCAAAGUGGCUGUGGCUAGACUGAC here?
Its self-cleavage is 0.03.

With GGCACAGCUCAACACAGCUUGGCAAAGUGGCUGCGGCUAGACUGAC as the variant, how does the self-cleavage read?
The self-cleavage was 0.05.

Which self-cleavage does the source give for GGCACAACUCAACACAGCGUGGCAGAGUGGGUGUGGCUAGACUGCC here?
Its self-cleavage is 0.04.

For GGCACAGCUCAACACACCGUGGCAAAGUGGCUGUGGCUAGACAGCC, which self-cleavage is on record?
The self-cleavage was 0.09.

Which self-cleavage does the source give for GGCACAGCUCAACACAACGUGGCAAAGUGGCUGUGGCCAGACUGCC here?
Its self-cleavage is 0.09.

For GGCACAGCUCAACACAGCCUGCCAAAGUGGCUGUGGCUAGACUGCC, which self-cleavage is on record?
The self-cleavage was 0.03.

With GGCACAGCUCAACACACCGUGGCAAAGUGGCUGGGGCUAGACUGCC as the variant, how does the self-cleavage read?
The self-cleavage was 0.2.

Which self-cleavage does the source give for GGCACAGCUCAACACAGCGUGGCAAAGUGACUGUGGCUACACUGCC here?
The self-cleavage was 0.07.

With GGCACAACUCAACUCGCCGUGGCAAAGUGGCUGUGCCUAGACUGUG as the variant, how does the self-cleavage read?
Its self-cleavage is 0.03.

For GGCACAUCUCAACACGGCGUGGCAAACUGGCUGUGGCUAGGCUGCC, which self-cleavage is on record?
Its self-cleavage is 0.03.

Which self-cleavage does the source give for GGCACACCUCCACACAGCGUGGCAAAGUGGUUGUGGGUAGACUGCC here?
Its self-cleavage is 0.01.

For GGCACAUAUCUACACAGCGUGGGAAAGUGGCUAUGCCCAGACUGCC, which self-cleavage is on record?
The self-cleavage was 0.01.

With GGCACAACUCAACACAGCGUGGAAAAGUGGCUGUGGCUAGAUUGCC as the variant, how does the self-cleavage read?
Its self-cleavage is 0.12.

Which self-cleavage does the source give for GGCACAGCUCAACACAGCGUGGCAAAGUGUCGUGGGCUAGACUGCC here?
Its self-cleavage is 0.05.

Which self-cleavage does the source give for GGCACAGCUCAACACAACGUGGCAAAGUAGCUAUGGAUAGACUGCC here?
The self-cleavage was 0.03.

Which self-cleavage does the source give for GGCACAGCUCAACACAGCGUGGCAAAGUCGCUGUGUCUAGACUGCC here?
The self-cleavage was 0.03.
